Experimental data taken from paper PMC4866044, “The RanBP2/RanGAP1*SUMO1/Ubc9 SUMO E3 ligase is a disassembly machine for Crm1-dependent nuclear export complexes” (Nature Communications, 2016).

Target: T1, RanBP2-3/4 complex (RanBP2-3/4-His / RanGAP1*SUMO1 / Ubc9) (human, UniProt P49792 2304-3062; P46060 1-587; P63165; P63279, SUMO1 conjugated in vitro (C-terminal tail domain) | conjugated to RanGAP1)
T1 construct: RanBP2 (Nup358), human, aa 2,304-3,062, 86 kDa fragment spanning RanBD3 and RanBD4; RanGAP1, full length; SUMO1, conjugated to RanGAP1 in vitro; Ubc9, untagged, full length; also called RanBP2/RanGAP1*SUMO1/Ubc9 complex; RanBP2 complex; source: bacterial expression constructs; components purified, RanGAP1 SUMOylated in vitro, complex formed on ice overnight and purified on MonoQ; not shown: His, …
Experiment: SEC; co-migration on Superdex200 5/150 GL; RanBP2 complex variant or fragment 0.5-1 μM with Crm1 variant or other receptor 1-2 μM; incubated in SAB (TB with 0.2 mg/ml ovalbumin, 0.05% Tween) on ice overnight, column in TB pH 7.3; peak fractions by SDS-PAGE and Coomassie
Details: both partners purified

T1 sequence (P49792 2304-3062, chain 1 of 4): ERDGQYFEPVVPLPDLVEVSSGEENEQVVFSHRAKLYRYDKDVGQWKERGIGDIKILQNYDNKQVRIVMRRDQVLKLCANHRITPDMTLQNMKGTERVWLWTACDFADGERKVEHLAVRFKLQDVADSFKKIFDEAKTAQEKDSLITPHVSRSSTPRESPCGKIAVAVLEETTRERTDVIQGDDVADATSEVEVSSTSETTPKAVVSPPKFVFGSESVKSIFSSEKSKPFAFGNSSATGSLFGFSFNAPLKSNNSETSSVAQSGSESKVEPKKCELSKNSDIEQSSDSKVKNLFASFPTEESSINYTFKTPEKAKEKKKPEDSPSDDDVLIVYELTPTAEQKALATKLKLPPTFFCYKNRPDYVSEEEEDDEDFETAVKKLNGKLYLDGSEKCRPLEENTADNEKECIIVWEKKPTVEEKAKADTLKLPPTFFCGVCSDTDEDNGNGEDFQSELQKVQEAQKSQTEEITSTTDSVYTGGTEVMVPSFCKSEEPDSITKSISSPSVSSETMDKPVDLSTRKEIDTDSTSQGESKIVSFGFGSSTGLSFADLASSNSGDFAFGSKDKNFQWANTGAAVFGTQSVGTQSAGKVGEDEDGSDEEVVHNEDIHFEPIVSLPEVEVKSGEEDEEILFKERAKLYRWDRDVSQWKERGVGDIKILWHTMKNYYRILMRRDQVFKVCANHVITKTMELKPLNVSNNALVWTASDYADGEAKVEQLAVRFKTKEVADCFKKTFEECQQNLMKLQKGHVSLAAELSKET
T1 sequence (P46060 whole entry, chain 2 of 4, further chain, the tested form may be a part): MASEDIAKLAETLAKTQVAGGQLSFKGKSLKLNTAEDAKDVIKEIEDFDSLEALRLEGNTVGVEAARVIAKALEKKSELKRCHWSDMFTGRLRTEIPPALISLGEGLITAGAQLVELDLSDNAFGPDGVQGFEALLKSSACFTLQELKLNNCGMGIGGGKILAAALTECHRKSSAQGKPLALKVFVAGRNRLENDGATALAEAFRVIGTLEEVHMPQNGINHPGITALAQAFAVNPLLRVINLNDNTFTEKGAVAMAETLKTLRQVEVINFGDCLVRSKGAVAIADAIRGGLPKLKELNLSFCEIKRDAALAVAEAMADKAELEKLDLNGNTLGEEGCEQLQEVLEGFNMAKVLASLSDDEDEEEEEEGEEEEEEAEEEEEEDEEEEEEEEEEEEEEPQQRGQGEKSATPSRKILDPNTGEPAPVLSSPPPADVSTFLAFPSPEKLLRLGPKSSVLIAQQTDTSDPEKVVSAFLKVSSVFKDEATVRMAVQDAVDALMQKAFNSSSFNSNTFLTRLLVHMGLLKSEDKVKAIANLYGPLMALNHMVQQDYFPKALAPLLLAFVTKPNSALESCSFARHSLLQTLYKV
T1 sequence (P63165 1-97, chain 3 of 4, further chain): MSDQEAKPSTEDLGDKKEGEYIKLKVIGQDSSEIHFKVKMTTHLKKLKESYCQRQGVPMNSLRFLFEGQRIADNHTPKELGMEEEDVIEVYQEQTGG
T1 sequence (P63279 whole entry, chain 4 of 4, further chain, the tested form may be a part): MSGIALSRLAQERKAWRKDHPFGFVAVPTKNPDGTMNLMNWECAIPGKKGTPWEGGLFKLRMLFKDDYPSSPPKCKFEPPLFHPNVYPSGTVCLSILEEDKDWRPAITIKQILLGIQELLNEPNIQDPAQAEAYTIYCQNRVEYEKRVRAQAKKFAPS

B1: […]A/W880A (natural protein)
chain: not shown
notes: made from the Crm1-His construct; also called Crm1 double-mutant; source: bacterial expression, purified
B1: binds.
